# Measured values published in PubChem BioAssay AID485367 (National Center for Advancing Translational Sciences (NCATS), 2010).
# Hit rate of the full screen: of about 330,000 compounds, about 560 (0.17%) were called active. The shares of active, inactive and inconclusive entries below differ from those in the screen. The call rests on the fitted dose curve; in most records, active means well fitted inhibition curve with a large enough effect; inconclusive means small, poorly fitted or top-dose-only effect, or effect the other way; inactive means flat fitted curve, though single readings scatter. No potency is given beside an inconclusive call; the fits are too rough.
# Target: ATP-dependent 6-phosphofructokinase (Trypanosoma brucei brucei) (UniProt O15648)
# UniProt O15648, sequence (O15648 whole entry, looked up): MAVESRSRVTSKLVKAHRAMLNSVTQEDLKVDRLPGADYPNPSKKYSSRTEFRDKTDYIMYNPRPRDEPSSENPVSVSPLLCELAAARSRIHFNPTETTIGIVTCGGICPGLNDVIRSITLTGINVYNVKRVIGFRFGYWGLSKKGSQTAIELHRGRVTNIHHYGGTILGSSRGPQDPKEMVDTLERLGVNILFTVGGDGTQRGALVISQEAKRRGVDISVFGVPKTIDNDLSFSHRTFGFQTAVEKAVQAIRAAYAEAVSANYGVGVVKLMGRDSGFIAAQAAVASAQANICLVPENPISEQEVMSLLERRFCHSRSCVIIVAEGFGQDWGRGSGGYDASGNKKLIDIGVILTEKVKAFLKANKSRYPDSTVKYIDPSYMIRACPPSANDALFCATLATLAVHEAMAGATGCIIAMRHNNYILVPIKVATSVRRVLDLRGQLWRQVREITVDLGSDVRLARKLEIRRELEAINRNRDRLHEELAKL
# Experiment: qHTS Assay to Find Inhibitors of T. brucei phosphofructokinase; further: nearly all actives have a fitted effect of over 60% in size
# Details: T. brucei PFK, ADP-Glo luminescence; series mostly up to 57.5 µM
# Summary of the method: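 Activity is normalized to no-enzyme wells (full inhibition) and 1.25 nM enzyme wells (no inhibition). Reaction: 0.5 mM F6P, 0.1 mM ATP, 45 min RT, ADP-Glo luminescence; concentration-response curves fitted and classed by quality.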
# Potency means the concentration at half of the fitted maximal effect; tags describe the fitted curve by direction and shape.
row,Compound,Potency
1,CC(C)CNC(=O)C1CCCN1S(=O)(=O)c1ccc(Cl)cc1 (centres undefined),"inconclusive [falling, single point]"
2,CCOC(=O)/C(C)=C1\NC(C)(C)Cc2ccccc21,inactive
3,O=C1c2cc(O)c(O)cc2S(=O)(=O)C1c1ccccc1 (centres undefined),"inconclusive [falling, single point]"
4,CC1CC(C)CN(CCCNC(=O)c2ccc(CS(=O)(=O)Cc3cccc(Cl)c3)o2)C1 (centres undefined),"inconclusive [falling, single point]"
5,COc1ccc(S(=O)(=O)N2CCN(C(=O)c3cc4c(s3)CCC4)CC2)cc1,"inconclusive [falling, full curve, poor fit]"
6,CCOC(=O)c1nnc2c(Br)c(-c3ccccc3)nn2c1C,inactive
7,CCCCn1c(N)c(N(Cc2ccccc2OC)C(=O)CN2C(=O)NC3(CCCC3)C2=O)c(=O)[nH]c1=O,"inconclusive [falling, single point]"
8,CC(=O)Oc1ccc(Cl)cc1/C=C/c1cc(OC(C)=O)c2ccccc2n1,"inconclusive [activator, single point]"
9,CCC(=C/c1sc2ccc3ccccc3c2[n+]1C)/C=C1\Sc2ccc3ccccc3c2N1C,"inconclusive [activator, single point]"
10,N#CC1=C(N)N(c2ccc(F)cc2)C2=C(C1c1ccc(O)cc1)S(=O)(=O)CC2 (centres undefined),"inconclusive [falling, single point]"
11,NC(=O)C1CCN(C(=O)CCSCc2ccc(Cl)c(Cl)c2)CC1,"inconclusive [falling, partial curve]"
12,Cc1n[nH]c(C)c1Sc1ccccc1[N+](=O)[O-],"inconclusive [falling, partial curve]"
13,Cc1c(N2C(=O)/C(=C\c3ccccc3O)SC2=S)c(=O)n(-c2ccccc2)n1C,active: 21.3 µM
14,O=C1C(C2=C(O)c3ccccc3C2=O)=Nc2ccccc21,inactive
15,O=C(Nc1ccccc1F)c1ccc(Cn2cc(Cl)cn2)cc1,"inconclusive [falling, single point]"
16,Cc1cc2ncn(/N=C/c3ccc([N+](=O)[O-])o3)c2cc1C,inactive
17,CC1=NNC(=O)C1CC(=O)N/N=C/C=C/c1ccccc1 (centres undefined),"inconclusive [falling, single point]"
18,CC(CNc1ccccc1O)C(=O)O (centres undefined),active: 23.9 µM
19,O=C1CC(c2ccco2)CC(O)=C1C=Nc1cc(Cl)cc(Cl)c1 (centres undefined),inactive
20,CCC(=O)N(C)CCc1cc2c(c(OC)c1/C=N/Nc1ccc(C(=O)O)cc1)OCO2,inactive
21,COc1ccc(CCC(=O)NCCc2ccc(Cl)cc2)cc1,"inconclusive [falling, single point]"
22,COc1ccc(-c2cc(C)nc(SCc3cccc(C(=O)O)c3)n2)cc1,inactive
23,Cc1ccc(S(=O)(=O)N2CCCC(C(=O)O)C2)s1 (centres undefined),inactive
24,COc1ccc(N(Cc2cc3ccccc3[nH]c2=O)S(C)(=O)=O)cc1,inactive
25,COCc1cc(N2CCCCC2)nc(-c2ccccc2)n1,inactive

row,Compound,Potency
1,O=C(CSc1nnc(CNc2cccc(Cl)c2)o1)OC1CCCCC1,"inconclusive [falling, single point]"
2,Cc1ncc(CO)c(/C=N/NC(=O)c2cc(Br)ccc2O)c1O,inactive
3,CC(OC(=O)c1ccc(-n2cnnn2)cc1)C(=O)Nc1ccc(F)c(F)c1F (centres undefined),"inconclusive [falling, single point]"
4,Cc1c(CCC(=O)O)c(=O)oc2cc3occ(C(C)(C)C)c3cc12,inactive
5,Cc1ccc(S(=O)(=O)/N=C2/NC(=O)/C(=C/c3cc([N+](=O)[O-])ccc3O)S2)cc1,"inconclusive [activator, partial curve]"
6,O=c1nc(N/N=C/c2ccco2)cn[nH]1,"inconclusive [falling, single point]"
7,CCCN1C(=O)S/C(=C/c2ccc(N3CCOCC3)o2)C1=O,"inconclusive [falling, partial curve]"
8,Cc1cc(O)cc2c1C(=O)/C(=C/c1ccco1)O2,"inconclusive [falling, partial curve, poor fit]"
9,O=C(Cn1cc([N+](=O)[O-])cn1)Nc1ccc(Cn2cc(Br)cn2)cc1,active: 26.9 µM
10,O=C1C(=Cc2ccc(Br)o2)C(=O)c2ccccc21,"inconclusive [falling, partial curve]"
11,COc1cc(/C=N/Nc2ccc(C(=O)O)cc2)ccc1O,"inconclusive [falling, single point]"
12,COc1cc(OC)c(-c2c3cc(O)c(=O)cc-3oc3cc(O)c(O)cc23)cc1OC,"inconclusive [falling, full curve]"
13,Cn1c2cc(B(O)O)sc2c2cnn(Cc3ccc(F)cc3F)c(=O)c21,inactive
14,O=C1C=CC(=O)N1c1ccc(N2CCCCC2)cc1,"inconclusive [falling, full curve, poor fit]"
15,COC(=O)c1nn(-c2ccccc2)c(Cl)c1/C=N/OCc1ccc(C)cc1,inactive
16,Cc1ccc2sc(NNC(=O)C3COc4ccccc4O3)nc2c1C (centres undefined),"inconclusive [falling, single point]"
17,COc1cc(NC(=O)[C@@H](NC(=O)N2CCn3c2nc2ccccc23)C(C)C)cc(OC)c1,inactive
18,O=C(CSc1ccccc1)Nc1ccc(S(=O)(=O)Nc2ncccn2)cc1,"inconclusive [falling, partial curve]"
19,CCn1c(SCC(=O)N/N=C/C(C)=C\c2ccco2)nnc1-c1ccccc1,"inconclusive [falling, single point]"
20,COC(=O)c1cccc(NC(=S)Nc2ccc(Cl)c(Cl)c2)c1,active: 12 µM
21,O=C(O)c1cccc(N2C(=O)c3ccc(C(=O)c4cccc([N+](=O)[O-])c4)cc3C2=O)c1,"inconclusive [falling, single point]"
22,CC1Sc2ccc(S(=O)(=O)CCC(=O)N3CCN(c4cccc(Cl)c4)CC3)cc2NC1=O (centres undefined),"inconclusive [falling, partial curve]"
23,Cc1c(C(=O)NCc2cccnc2)oc2ccc(S(=O)(=O)N3CC(C)CC(C)C3)cc12 (centres undefined),inactive
24,CN(C)S(=O)(=O)c1cccc(NC(=O)c2cc(-c3cccs3)nc3ccccc23)c1,inactive
25,O=C(Nc1ccc(CN2CCCCC2)cc1)c1sc2ccccc2c1Cl,"inconclusive [falling, single point]"

row,Compound,Potency
1,O=c1c2c([nH]c3ccccc13)C(=C1CCCC1)CC2,"inconclusive [falling, single point]"
2,Cc1ccc(NC(=O)c2ccc3c(SCC(=O)O)c4c(nc3c2)CCCC4)c(Br)c1,inactive
3,c1coc(-c2nc(-c3ccco3)c(-c3ccco3)nc2-c2ccco2)c1,"inconclusive [falling, full curve]"
4,O=C(Nc1ccc(Br)cc1)c1csc(-c2ccncc2)n1,"inconclusive [falling, partial curve]"
5,O=C(COc1ccc(/C=N/NC(=O)c2cccnc2)cc1)Nc1ccccc1,"inconclusive [falling, single point]"
6,NNc1nc2c(Cl)c(Cl)ccc2s1,"inconclusive [falling, full curve, poor fit]"
7,O=C(Cc1ccccc1)N/N=C/c1cc2c(cc1Cl)OCO2,"inconclusive [falling, single point]"
8,O=C1c2ccccc2NC(c2ccc([N+](=O)[O-])cc2)N1O (centres undefined),"inconclusive [falling, single point]"
9,Cn1ccc(=S)c2ccccc21,inactive
10,O=C(NNC(=O)c1cc(-c2ccccc2)nc2ccccc12)Nc1cccc(Cl)c1,inactive
11,CC1(C)S[C@@H]2[C@H](NC(=O)[C@H](C(=O)O)c3ccsc3)C(=O)N2[C@H]1C(=O)O,inactive
12,CCc1cc(C(=O)N=Nc2c(O)[nH]c3ccc([N+](=O)[O-])cc23)c2ccccc2n1,inactive
13,CCOC(=O)Cc1nn(Cc2nc(-c3ccc(C#N)cc3)cs2)c(=O)c2ccccc12,inactive
14,COc1ccc2[nH]c(=O)c(CN(CC3CCCO3)S(=O)(=O)c3ccccc3F)cc2c1 (centres undefined),inactive
15,Cc1c(NC(=O)C2CC=CCC2C(=O)O)c(=O)n(-c2ccccc2)n1C (centres undefined),"inconclusive [falling, single point]"
16,CC(C)(CO)Nc1ccc([N+](=O)[O-])cc1[N+](=O)[O-],inactive
17,NS(=O)(=O)c1cc2c(cc1Cl)NC(CSCc1ccccc1)=NS2(=O)=O,"inconclusive [falling, partial curve]"
18,CCn1nc(NS(=O)(=O)c2ccccc2)c2cc3cccc(C)c3nc21,inactive
19,O=C(COC(=O)c1ccccc1Br)NC(=O)NCc1ccccc1,"inconclusive [falling, single point]"
20,Cc1cc(N2C(=O)C(O)=C(C(=O)c3ccco3)C2c2cccc(Oc3ccccc3)c2)no1 (centres undefined),inactive
21,O=c1c(O[C@@H]2O[C@H](CO)C(O)C2O)c(-c2ccc(O)c(O)c2)oc2cc(O)cc(O)c12 (some centres undefined),"inconclusive [falling, partial curve]"
22,CCOc1cccc(/C=N/N2C(=O)CSC2=S)c1O,active: 7.57 µM
23,N#CC(C(=O)Nc1cccc(Cl)c1)=C1Nc2ccccc2N1,"inconclusive [falling, partial curve, poor fit]"
24,Cn1c(COc2ccc(Cl)cc2)nc2ccccc2c1=O,"inconclusive [falling, single point]"
